Binding signal (RPM ratio (pull-down/input)) data for 31 sequences are collected here from PMC12820563.

The list shows a part of the results. The list includes weakly bound sequences.

The target in the assay is T1, MBP-FoxP3dN (UniProt Q99JB6).
T1 sequence: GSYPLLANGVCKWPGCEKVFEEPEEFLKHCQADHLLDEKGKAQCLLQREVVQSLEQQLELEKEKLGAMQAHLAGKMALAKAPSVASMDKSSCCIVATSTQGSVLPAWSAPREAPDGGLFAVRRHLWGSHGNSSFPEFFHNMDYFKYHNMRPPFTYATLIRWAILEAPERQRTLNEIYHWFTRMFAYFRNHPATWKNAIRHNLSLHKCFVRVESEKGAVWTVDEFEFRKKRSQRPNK
Nature of the assay: PD-seq (MBP pull-down with sequencing). The conditions noted are these: 20 mM Tris-HCl pH 7.5, 100 mM NaCl, 1.5 mM MgCl2, 0.4 uM protein, 0.1 uM dsDNA library, 30 min, room temperature, amylose pull-down; high values mean tight binding; double strand, one strand shown.
Turning to “GATGATTGTTCTCCCAGCTGATGAATTGCAGCCGTCGAGTAAACAAATTTTCCTAATCTTTCTGTTCAAGCGCCATCTAC”, the binding signal (RPM ratio (pull-down/input)) came to 0.786.
For “GATGATTGTTCTCCCAGCTGATGAATTCTAAACTTCGAGTAAACAAATTTTCCTAATCTTTCTGTTCAAGCGCCATCTAC”, the binding signal (RPM ratio (pull-down/input)) is 0.381.
With “GATGATTGTTCTCCCAGCTGATGAATTTGAAGGCTCGAGTAAACAAATTTTCCTAATCTTTCTGTTCAAGCGCCATCTAC” the figure was 0.363; with “GATGATTGTTCTCCCAGCTGATGAATTGAATAATTCGAGTAAACAAATTTTCCTAATCTTTCTGTTCAAGCGCCATCTAC”, 0.288; with “GATGATTGTTCTCCCAGCTGATGAATTGCAGTTGTCGAGTAAACAAATTTTCCTAATCTTTCTGTTCAAGCGCCATCTAC”, 1.57.
As to “GATGATTGTTCTCCCAGCTGATGAATTACCGCTCTCGAGTAAACAAATTTTCCTAATCTTTCTGTTCAAGCGCCATCTAC”, the binding signal (RPM ratio (pull-down/input)) was 0.454.
With “GATGATTGTTCTCCCAGCTGATGAATTAGGACGCTCGAGTAAACAAATTTTCCTAATCTTTCTGTTCAAGCGCCATCTAC” the figure was 0.484.
With “GATGATTGTTCTCCCAGCTGATGAATTTGTAGTTTCGAGTAAACAAATTTTCCTAATCTTTCTGTTCAAGCGCCATCTAC” the figure was 5.3; with “GATGATTGTTCTCCCAGCTGATGAATTAGTAACATCGAGTAAACAAATTTTCCTAATCTTTCTGTTCAAGCGCCATCTAC”, 1.11.
With “GATGATTGTTCTCCCAGCTGATGAATTACACAGATCGAGTAAACAAATTTTCCTAATCTTTCTGTTCAAGCGCCATCTAC” the figure was 0.357.
On to “GATGATTGTTCTCCCAGCTGATGAATTGATTTCATCGAGTAAACAAATTTTCCTAATCTTTCTGTTCAAGCGCCATCTAC”, for which the binding signal (RPM ratio (pull-down/input)) came to 0.584.
On to “GATGATTGTTCTCCCAGCTGATGAATTCCTCATGTCGAGTAAACAAATTTTCCTAATCTTTCTGTTCAAGCGCCATCTAC”, for which the binding signal (RPM ratio (pull-down/input)) came out at 0.325.
Take “GATGATTGTTCTCCCAGCTGATGAATTTACGTTTTCGAGTAAACAAATTTTCCTAATCTTTCTGTTCAAGCGCCATCTAC”: the binding signal (RPM ratio (pull-down/input)) is 0.716.
With “GATGATTGTTCTCCCAGCTGATGAATTCACAAAATCGAGTAAACAAATTTTCCTAATCTTTCTGTTCAAGCGCCATCTAC” the figure was 0.214; with “GATGATTGTTCTCCCAGCTGATGAATTGAAGGCGTCGAGTAAACAAATTTTCCTAATCTTTCTGTTCAAGCGCCATCTAC”, 0.614; with “GATGATTGTTCTCCCAGCTGATGAATTAAGAAACTCGAGTAAACAAATTTTCCTAATCTTTCTGTTCAAGCGCCATCTAC”, 0.593.
With “GATGATTGTTCTCCCAGCTGATGAATTTCCGCAGTCGAGTAAACAAATTTTCCTAATCTTTCTGTTCAAGCGCCATCTAC” the figure was 0.485; with “GATGATTGTTCTCCCAGCTGATGAATTCTTGAAGTCGAGTAAACAAATTTTCCTAATCTTTCTGTTCAAGCGCCATCTAC”, 0.217; with “GATGATTGTTCTCCCAGCTGATGAATTCGTGCGTTCGAGTAAACAAATTTTCCTAATCTTTCTGTTCAAGCGCCATCTAC”, 1.74.
With “GATGATTGTTCTCCCAGCTGATGAATTATGGAGATCGAGTAAACAAATTTTCCTAATCTTTCTGTTCAAGCGCCATCTAC” the figure was 0.294.
Consider “GATGATTGTTCTCCCAGCTGATGAATTGAGCCTGTCGAGTAAACAAATTTTCCTAATCTTTCTGTTCAAGCGCCATCTAC”, for which the binding signal (RPM ratio (pull-down/input)) is 4.04.
With “GATGATTGTTCTCCCAGCTGATGAATTAATTATATCGAGTAAACAAATTTTCCTAATCTTTCTGTTCAAGCGCCATCTAC” the figure was 0.719; with “GATGATTGTTCTCCCAGCTGATGAATTCCGAGTATCGAGTAAACAAATTTTCCTAATCTTTCTGTTCAAGCGCCATCTAC”, 0.57.
For the sequence “GATGATTGTTCTCCCAGCTGATGAATTGAGACTCTCGAGTAAACAAATTTTCCTAATCTTTCTGTTCAAGCGCCATCTAC”, the binding signal (RPM ratio (pull-down/input)) amounted to 1.67.
As to “GATGATTGTTCTCCCAGCTGATGAATTAGGGGTGTCGAGTAAACAAATTTTCCTAATCTTTCTGTTCAAGCGCCATCTAC”, the binding signal (RPM ratio (pull-down/input)) was 1.01.
Consider “GATGATTGTTCTCCCAGCTGATGAATTGAGCCAGTCGAGTAAACAAATTTTCCTAATCTTTCTGTTCAAGCGCCATCTAC”, for which the binding signal (RPM ratio (pull-down/input)) amounted to 1.18.
On to “GATGATTGTTCTCCCAGCTGATGAATTTTTTCCCTCGAGTAAACAAATTTTCCTAATCTTTCTGTTCAAGCGCCATCTAC”, for which the binding signal (RPM ratio (pull-down/input)) came to 0.157.
On to “GATGATTGTTCTCCCAGCTGATGAATTGTTGAAATCGAGTAAACAAATTTTCCTAATCTTTCTGTTCAAGCGCCATCTAC”, for which the binding signal (RPM ratio (pull-down/input)) was 0.557.
Consider “GATGATTGTTCTCCCAGCTGATGAATTGTATGGATCGAGTAAACAAATTTTCCTAATCTTTCTGTTCAAGCGCCATCTAC”, for which the binding signal (RPM ratio (pull-down/input)) amounted to 1.09.
The value for “GATGATTGTTCTCCCAGCTGATGAATTCCCGATCTCGAGTAAACAAATTTTCCTAATCTTTCTGTTCAAGCGCCATCTAC” was 0.219.
The value for “GATGATTGTTCTCCCAGCTGATGAATTCACAGTCTCGAGTAAACAAATTTTCCTAATCTTTCTGTTCAAGCGCCATCTAC” was 0.384.
